# Paper PMC12040169 (PLOS Biology, 2025)
# This is one part of the list.
# Test system: T1, C. trachomatis L2/434/Bu expressing GFP (CTL2-GFP)
# T1 construct: L2/434/Bu GFP intracellular growth in HeLa cells
# Set-up: species or system HeLa; C. trachomatis total inclusion area by high-content imaging, normalised to DMSO
# Settings: total inclusion area; 28.5 h, 10 µM; inhibitor
# How it was run: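 Following bulk GFP and resorufin fluorescence reads, infected cells were fixed, Hoechst-stained and imaged on a high-content platform. Inclusion total area and number per well served as growth proxies; nuclei counts indicated host viability. MICs were derived as for the fluorescence assay.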
row,SMILES,% of control remaining
1,CCCCS(=O)(=O)N1CCN(CCc2ccccc2)CC1 [CBK270316],80.8453
2,NC(=O)C1(N2CCCCC2)CCN(C(=S)Nc2ccc(S(N)(=O)=O)cc2)CC1 [CBK265900],96.8748
3,O=C(CCNS(=O)(=O)c1ccccc1)OCc1ccc([N+](=O)[O-])cc1 [CBK296659],74.208
4,OCCCNc1nccnc1-c1ccco1 [CBK037346],65.9621
5,O=C(CN1CCC(C(=O)c2ccc(F)cc2)CC1)Nc1ncccn1 [CBK149131],105.101
6,Cc1n[nH]c(O)c1C(c1cccc([N+](=O)[O-])c1)c1c(C)n[nH]c1O [CBK264753],113.169
7,O=C(CCOc1ccccc1)Nc1cncc(OC2CCNCC2)n1 [CBK026734T],78.5259
8,COc1cc2oc(=O)c(CC(=O)N3CCCC(C(=O)O)C3)c(C)c2cc1Cl (centres unmarked) [CBK286754],113.507
9,Cc1nc(S(=O)(=O)N2CCC(OCC3CC3)C2)cn1C (centres unmarked) [CBK304668],46.0233
10,CSc1ncc(C(=O)NC2CCCC2)c(NC2CCCC2)n1 [CBK291223],103.295
11,Oc1nc(O)c2c(n1)NC1(CCC1)[C@@H]1C[C@@H](O)[C@@H](O)[C@H]21 [CBK303249],54.3707
12,OCc1ccc(CN2C[C@H](O)C[C@H]2c2nc(-c3cnccn3)no2)o1 [CBK288832],100.593
13,Cc1ccc(C#N)cc1S(=O)(=O)NC(=O)COCC1CC1 [CBK304427],64.377
14,COc1cc2ncnc(NCc3ccccc3)c2cc1OC [CBK287984],83.3091
15,CCOC(=O)C1CSCN1C(=O)c1cnn(C(CC)CC)c1C (centres unmarked) [CBK304759],87.1412
16,C[C@H](c1ccccc1)n1c(=O)[nH]c2ncc(-c3ccc(C(=O)N4CCN(C)CC4)cc3)nc21 [CBK064559],62.2841
17,CCn1c(CC2CCN(C(=O)CCN3CCCCO3)CC2)nn(C)c1=O [CBK307217],63.3248
18,O=C(NC(c1ccccc1)c1ccccc1)N1CCN(c2ccccc2)CC1 [CBK155177],91.6323
19,COc1ccc(CCNC2CCN(Cc3ccccc3)CC2c2ccccc2)cc1OC (centres unmarked) [CBK286166],113.495

row,SMILES,% of control remaining
1,CC(C)(C)c1nc(COc2ccc3nonc3c2)no1 [CBK005831],91.2876
2,CC(C)NC(=O)N1Cc2nc[nH]c2C[C@H]1c1nc(-c2ccc(OC(F)(F)F)cc2)no1 [CBK288960],56.4516
3,Cn1cc(Cl)c(C2CCCCCN2C(=O)c2cc(C3CC3)on2)n1 (centres unmarked) [CBK285120],81.6779
4,CCCC(=O)Nc1nnc(-c2ccc(Cl)cc2)o1 [CBK287594],88.2343
5,Cc1nc(C)n(CC2CCCCN2Cc2cn3ccccc3c2C#N)n1 (centres unmarked) [CBK306102],75.1549
6,CC#Cc1cn([C@H]2C[C@@H](O)[C@@H](CO)O2)c(=O)[nH]c1=O [CBK201182],119.931
7,O=C(CN1CCC(C(=O)NC(c2ccccc2)c2ccsc2)CC1)c1ccc(F)cc1 (centres unmarked) [CBK148432],97.9909
8,Cn1cccc1C(=O)N[C@H]1C[C@H]2C(=O)Nc3ccc(/C=C/c4ccccc4)cc3C(=O)N2C1 [CBK289367],91.9469
9,O=C(NC1CCCCC1)c1ccc(-c2ccccc2)nc1NCCc1ccccn1 [CBK076553],112.345
10,Cc1occc1-c1nn(CCN2CCCCC2)c(=O)o1 [CBK283815],112.804
11,CS(=O)(=O)Nc1ccc2cc(-c3ccccc3)cnc2n1 [CBK061899],103.139
12,CC(C)Oc1ccc(C(=O)C2=C(O)C(=O)N(Cc3cccnc3)C2c2cccc([N+](=O)[O-])c2)cc1 (centres unmarked) [CBK264936],119.741
13,O=P(O)(CN1CCCCC1)C1CCCCC1O (centres unmarked) [CBK262325],85.7829
14,COc1cccc(Oc2cnc(-c3cccc(C(F)(F)F)c3)c(N)n2)c1 [CBK145177],96.694
15,O=C(Cn1c(-c2cccs2)cc2cccnc21)N1CCCC1 [CBK282453],115.735
16,Cc1ccc(-c2ncc(OCCn3ccnc3)nc2N)cc1C [CBK145148],103.251
17,Cn1cc(CN2C[C@H]3CN(C(=O)C4CCC4)C[C@@]3(C(=O)O)C2)cc1C#N [CBK307105],73.7135
18,CS(=O)(=O)Nc1ncc(-c2ccco2)cc1C(=O)NCCc1c[nH]c2ccccc12 [CBK076569],115.056
19,COc1ccc(Br)c(C(CO)N(C)C(=O)CC#N)c1 (centres unmarked) [CBK304240],33.9467
